Drawing on the RNAGym collection of RNA variant scans (doi:10.7554/elife.90254), this text covers self-cleavage for 56 variants.

To fix the notation:
B1: LINE1-mini (parent)
chain: GGCAGAGCUCAACACAGCGUGGCAAAGUGGCUGUGGCUAGACUGCC

Read counts are not given, so values of variants with three or more changes are uncertain.

Variants of B1 are the subject of this series. The series is described as follows: self-cleavage, relative activity (ratio to wild type); higher = more cleavage; in vitro, sequencing; the parent is a self-cleaving ribozyme.
As for GGCAGCGCAUAACACAGCGUGGCAAAGUGGCUGUGGCUAGACUGCC, the self-cleavage worked out at 0.03.

For GGCAGCGCUCAACACAGCGAGGCAAAGUGGCUGUGGCUAGACUACC, the self-cleavage came to 0.06. The same measure for GGCAGCGCGCAACACAGCGUGCCAAAGUGGCUGUGGCUAGACUGCC: 0.02; for GGCAGCGCUCAACACAGCGUGGCAAAGUGGCUAUGUCUAGACUGCC: 0.03; for GGCAGCGCUCAACACAGCGUGGCAAAGUGGCUGUGGCUAUACUGAC: 0.04. As to GGCAGCGCUCAACACAGCGCGGCAAGCUGGCUGUGGCUAGACUGCC, the self-cleavage is 0.41. GGCAGCGCUCAACACAGCGGGGCAAAGUGGCUGUGGCUAGACUGCA: the self-cleavage worked out at 0.05.

Regarding GGCAGCGCACAACACAGCGUGGCAAAGUGGCUGUCGCUUGACUGCC, the self-cleavage stood at 0.02.

As to GGCAGCGCUCAACACAGCGUGGCAAAGUGGCUGUUGAUAAACUGCC, the self-cleavage worked out at 0.07. GGCAGCGCUCAACACAGCGUGGCAAAGUGGCUGAGGCUUGACUGCC: the self-cleavage was 0.06. Regarding GGCAGCGCUCAACACAGCGUGGCAAAGUGGCAGGGGCUAGACUGCC, the self-cleavage was found to be 0.

On to GGCAGCGCUCAACACAGCGUGGCAAAGAGGCUGUGGCGAGACUGCC, for which the self-cleavage was found to be 0.01.

For GGCAGCGCACAACACAGCGUGGCAAAGUGGCUUUGGCUAGACUGCC, the self-cleavage was determined as 0.04. As to GGCAGCGCUCAACACAGCGGGGCAAACUGGCUGUGGCUAGACUGCC, the self-cleavage amounted to 0.52. As for GGCAGCGCUCAACACAGCGUGGCAAAGUGGCUAUGGCUAGAAUGGC, the self-cleavage was 0.03. Take GGCAGCGCUCAACACAGCGUGGCAAAGAGGCUGUGGCUAGACUGCG: the self-cleavage amounted to 0.24. As for GGCAGCGCUCAACACAGCGUGGCAAAGUGGCCGUGGCUUGACUGCC, the self-cleavage was 0.08. As for GGCAGCGCACAACACAGCGUCGCAAAGUGGCUGUGGCUAGACUGCG, the self-cleavage was determined as 0.17.

With GGCAGCGCACAACACAGCGUGACAAAGUGGCUGUGGCUAGACUGCC, the self-cleavage was found to be 0.15. Consider GGCAGCGCUCAACACAGCGUGGCAAAGUGGCUGUGGCUACACUGUC, for which the self-cleavage worked out at 0.13. With GGCAGCGCUCAACACAGCGGGGCAAAGUGGUUGUGGCUAGACUGCC the figure was 0.04; with GGCAGCGCUCAACACAGCGUGGCAAAGCGGCUGUGGCUAGACAGCC, 0.1; with GGCAGCGCCCAACACAGCGUGGCAAAGUGGCGUUGGCUAGACUGCC, 0.02. Turning to GGCAGCGCUCAACACAGCGUGGCAAAGUGGCUGUAGCUAGACUGUC, the self-cleavage was 0.14. For GGCAGCGCUCAACACAGCGUGGCAAAGUGGCUGUGGCUAAACUACA, the self-cleavage is 0.01. Regarding GGCAGCGCUCAACACAGCGUGGCAAAGGGGCCGUGGUUAGACUGCC, the self-cleavage came out at 0.01.

On to GGCAGCGCUCAACACAGCGCGGCAAAGUGGCUGUGGCGAGACUGCC, for which the self-cleavage was 0.02. As to GGCAGCGCUCAACACAGCGCGGCAAAGUGGCUGUGGCUAGACUACC, the self-cleavage was found to be 0.05. For GGCAGCGCGCAACACAGCCUGGCAAAAUGGCUGUGGCUAGACUGCC, the self-cleavage came to 0.06. With GGCAGCGCUCAACACAGCGUGGCAAAGUGUCUAUGGCUAGACUGCC, the self-cleavage turned out to be 0.08. In the case of GGCAGCGCUCAACACAGCGUGGCAAAGAGGCUGUGUCUAGGCUGCC, the self-cleavage is 0.06.

As for GGCAGCGCUCAACACAGCGUGGCAAAGCGACUGUGGCUAGACUGCC, the self-cleavage amounted to 0.2. GGCAGCGCUCAACACAGCGUGGCAAAGUGGCUCUGGUUAGACUGCC: the self-cleavage came out at 0.04. As to GGCAGCGCUCAACACAGCGUGGCAAAGUGGCUGAGGCAAGACUGCC, the self-cleavage is 0.02. With GGCAGCGCUCAACACAGCGUGGCAAAGUGGCUGUUGCUGGACUGCC the figure was 0.24. Consider GGCAGCGCUCAACACAGCGUGGCAAAGUGGCUCUGCCUAGACUGCC, for which the self-cleavage came out at 0.1. The same measure for GGCAGCGCCCAACACAGCGUGGCAAAGUGAAUGUGGCUAGACUGCC: 0.03. As to GGCAGCGCCCAACACAGCGUGGCAAACUGGCUGUGGCUAGACUGCG, the self-cleavage turned out to be 0.03. For the variant GGCAGCGCUCAACACAGCGUGGCAAAGUGACUGUGGCUAGAUUCCC, the self-cleavage came out at 0.04.

In the case of GGCAGCGCGCAACACAGCGUGGCAAAGUGGCUGUGGCUACACUGCC, the self-cleavage was determined as 0.1. GGCAGCGCUCAACACAGCGUGGCAAAGUGGCUAUGGAUAGACUGCC: the self-cleavage is 0.1.

In the case of GGCAGCGCUCAACACAGCGAGGCAAAAUGGCUGUGGCAAGACUGCC, the self-cleavage was 0.13.

With GGCAGCGCGCAACACAGCGUGGCAAAGUGGCAGUGGCUAGACUGCA, the self-cleavage was 0.05. GGCAGCGCUCAACACAGCGUGGCAAAGAGGCUGUGGCUAGCCUGCC: the self-cleavage was 0.05. With GGCAGCGCACAACUCAGCGUGGCAAAGUGGCUGUGGCUAGAAUGCC, the self-cleavage is 0.16.

For the variant GGCAGCGCUCAACACAGCGGGGCAAAGUGGCUGUGGCUAGACUGGC, the self-cleavage turned out to be 0.22.

In the case of GGCAGCGCCCAACACAGCGUUGCAAAGUGGCUGUGGCUAGACUGCC, the self-cleavage amounted to 0.02.

Turning to GGCAGCGCGCAACACAGGGAGGCAAAGUGGCUGUGGCUAGACUGCC, the self-cleavage was 0.17. For GGCAGCGCACAACUCAGCGUGGCAAAGUGGCUGUGGCUAGACUGCU, the self-cleavage came out at 0.04. With GGCAGCGCACAACACAUCGUGCCAAAGUGGGUGUGGCUACACUGCC, the self-cleavage is 0.02.

On to GGCAGCGCUCAACACAGCGUGGCAAAGUGUCUGUGGCUAGCCUGCC, for which the self-cleavage turned out to be 0.04. With GGCAGCGCUCAACACAGCGUGGCAAAGUGGCUGUGACUAGGCUGCC the figure was 0.78; with GGCAGCGCUCAACACAGCGUGGCAAAGUGGCUGUAGCUAGAGUGCC, 0.04; with GGCAGCGCGCAAGACAGCGUGGCAAAGUGGCUGUUGCUAGACUGCC, 0.04. For GGCAGCGCUCAACACAGCGCGGCAAAUUGGCUGUGGCAAGACUGCC, the self-cleavage was 0.04. Take GGCAGCGCUCAACACAGCGUGGCAAAGUGGCUUUGCCUAGACUGAC: the self-cleavage was 0.01.
